Where two headings read alike, the source gives them in different places.

In experiment [1] the test system is HBV rtL180M/M204V/T184G/S202I. The experiment can be described thus: microbe, parasite or virus in culture. Particulars: Hepatitis B virus.
Experiment [2] deals with HBV rtL180M/M204V. The experiment can be described thus: microbe, parasite or virus in culture. To be noted: Hepatitis B virus.
The test system of experiment [3] is HBV rtL180M/M204V/T184G/S202I. Particulars: read-out: HBV DNA, EC50; Huh-7, rtL180M/M204V/T184G/S202I.
Experiment [4] deals with HBV rtL180M/M204V. Particulars: read-out: HBV DNA, EC50; Huh-7, rtL180M/M204V.

By EC50 is commonly meant the concentration needed to bring the measured effect to its halfway point. `C=C1[C@H](CO)[C@@H](O)C[C@@H]1n1cnc2c(=O)[nH]c(N)nc21` [ETV, entecavir]: the EC50 in experiment [1] (Huh-7, read-out: HBV DNA, EC50) is above 6.3 µM; in the experiment on HBV rtL180M/M204V [2] (Huh-7, read-out: HBV DNA, EC50) it was 0.28 µM.
For `CCOC(=O)C1=C(CN2CCOCC2)NC(c2nccs2)=NC1c1ccc(F)cc1Br` (stereo not drawn) [GLS4], the results for the EC50 (in experiment [3]; in the experiment with HBV rtL180M/M204V [4]) were 0.084 µM and 0.04 µM, respectively.
Regarding `COc1cc(OC(F)F)c2nc3c(n2c1)C[C@@H](C(C)(C)C)c1cc(C(=O)O)c(=O)[nH]c1-3` [AB-161], the EC50 amounted to 0.002 µM in experiment [1] (Huh-7, read-out: HBsAg, EC50) and 0.0019 µM in the experiment on HBV rtL180M/M204V [2] (Huh-7, read-out: HBsAg, EC50).

The values above are taken from PMC10975527 (Viruses, 2024).
